Data taken from the supplement of paper PMC3724861.
Some of the results follow.

test system: T1, Caupolican (Caup) homeodomain DNA-binding domain; assay: PBM E-score (8-mer, recovered from the published 9-mer minima) (E-score (dimensionless, -0.5 to 0.5)); Drosophila protein; higher = stronger relative binding preference, active = 0.31 or more
T1 sequence: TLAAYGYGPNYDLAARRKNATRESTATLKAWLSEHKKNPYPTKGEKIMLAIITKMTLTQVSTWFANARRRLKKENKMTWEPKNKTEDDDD
How it was run: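 Caup's homeodomain DNA-binding domain (residues 214-303) was made by in vitro transcription and translation and applied at 100 nM to custom-designed protein binding microarrays. Each value is an enrichment score that gives relative binding preference for a short DNA word, with higher meaning stronger. The 8-mer values were recovered from published 9-mer scores, each of which was the minimum of its two constituent 8-mer scores. A cutoff of 0.31 marks candidate sites.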

Sequence	PBM E-score
GTTACCTA	inactive: 0.128
CGAAAACA	inactive: 0.148
CAGGCTAA	inactive: -0.0324
CTACTAAG	inactive: -0.0581
GTAGTCTA	inactive: 0.153
CGGTACTA	inactive: 0.0591
TGCATACA	inactive: 0.276
AGAGCATG	inactive: 0.18
AATGTTCT	inactive: 0.241
ATCCCGAA	inactive: 0.0196
TAAATTGA	inactive: 0.141
AGTAAACT	inactive: 0.0679
ACCTGAAG	inactive: -0.0739
GCGGACGA	inactive: -0.109
AGCGCGTA	≥ -0.00798
AAATAGGT	inactive: 0.122
ACACATTC	inactive: 0.251
CACTGAGA	inactive: -0.0389
AAATGAGA	inactive: -0.0175
AAGTCATG	inactive: 0.223
CGGCAGAG	inactive: -0.235
AATCGTTG	inactive: 0.0396
CCGCAACC	inactive: -0.166
AGAGGGAA	inactive: -0.167
ACACAGAA	inactive: 0.23

Sequence	PBM E-score
AACCGGGT	≥ -0.0429
GCAGGTCA	inactive: -0.0892
CAGGTCAG	inactive: -0.0274
AGAATTAA	inactive: -0.022
TCCGCCGA	inactive: -0.158
AACCGGTT	≥ 0.00831
AATGCCAT	inactive: 0.0424
GGAAACGA	inactive: 0.0372
AAGCAGCC	inactive: -0.169
TCATATGA	inactive: 0.172
ACGCTCTC	inactive: -0.0806
AGAGTGAC	inactive: -0.0692
GTAATTAA	inactive: 0.236
CTAACGTA	inactive: 0.122
GGTATCTA	inactive: 0.0972
ACACCACA	inactive: 0.262
ACCCTTGC	inactive: -0.101
CCTAATGA	inactive: -0.0552
CTATGTCA	inactive: 0.307
ACTATTGG	inactive: -0.0652
ACAACTTG	inactive: 0.271
AGGCTTTC	inactive: -0.088
CGTTGAGA	inactive: 0.00839
AAGAACCT	inactive: -0.0156
CCCGAGCG	inactive: -0.215

Sequence	PBM E-score
GATATAAA	inactive: 0.0268
GATTATGC	inactive: 0.00528
ACGGCAAC	inactive: 0.0253
ATGGAATG	inactive: 0.082
ATACAGTC	inactive: -0.00196
GGAAATAA	inactive: 0.123
AAAAGGGG	inactive: -0.207
ATCTTCGC	inactive: -0.0436
ACTGTATC	inactive: 0.137
AACGCACC	inactive: -0.0904
AGCACCTA	inactive: -0.0226
CATGACGG	inactive: -0.0266
CGGGTTAA	inactive: -0.0452
GGGGTGTA	inactive: 0.109
CGCCATCA	inactive: -0.0955
CGAGATAA	inactive: 0.045
TCGTAGAA	inactive: 0.0351
ATAGGTGC	inactive: 0.0434
CCCCGGCA	inactive: -0.211
AGGCATAG	inactive: -0.0487
CATTACAG	inactive: 0.226
AGGATAGC	inactive: -0.137
AAATGGTG	inactive: 0.096
TCAACTGA	inactive: 0.118
ACCGTCTG	inactive: -0.183

Sequence	PBM E-score
ACACATGA	inactive: 0.265
ATTGATTC	inactive: 0.0795
ATAGCGTG	inactive: 0.052
CACCTTAC	inactive: -0.0122
TAGAAGGA	inactive: -0.0985
AGGCTCTG	inactive: -0.121
AACAGAAC	inactive: 0.13
TATCCAGA	inactive: 0.0313
CCGGGCCG	inactive: -0.274
GTTCCACA	inactive: 0.0461
CGGTCGCA	inactive: -0.202
GGGCACCA	inactive: -0.152
CTCTCTAC	inactive: -0.0205
CCGACACG	inactive: 0.223
ATGGGTGA	inactive: -0.0214
CACGCCGA	inactive: -0.0882
CAAATGGG	inactive: -0.0307
CGCAGGCA	inactive: -0.142
CCAACCAG	inactive: -0.0712
ATACGTAA	inactive: 0.187
ATGGTCTC	inactive: -0.0017
ATCGAGCA	inactive: -0.0611
ACTGGTTC	inactive: 0.104
CCGCTGCG	inactive: -0.233
ACTATTAT	inactive: 0.0917

Sequence	PBM E-score
GGAGCCAC	inactive: -0.198
AATGTTGT	active: 0.368
CTCGCGAG	inactive: -0.129
GTCACGTA	inactive: 0.072
AATAGATA	inactive: 0.153
AGGCACTC	inactive: -0.148
GCTTTTCA	inactive: -0.0909
CGGCTACA	inactive: 0.0254
CTCTCCCC	inactive: -0.236
CGTCACGA	inactive: 0.0278
AGTAAGTA	inactive: 0.138
ACCCTGTC	inactive: -0.0132
AATCCGGG	inactive: -0.188
CCGGCGAA	inactive: -0.142
CGGTCCCA	inactive: -0.214
AATGCAAA	inactive: 0.144
GATTAACC	inactive: -0.0627
CCGCGTCC	inactive: -0.087
AGAACGCC	inactive: -0.114
AATGTAAT	inactive: 0.303
GGCATGAA	inactive: 0.0161
CCCCCGTC	inactive: -0.334
AATTCTCG	inactive: 0.118
ACACCCTG	inactive: 0.105
ACAAACTA	inactive: 0.228

Sequence	PBM E-score
ATTCTTAG	inactive: -0.0516
GGCATCTA	inactive: -0.0451
GGACGTCA	inactive: -0.0322
ACAGTATA	inactive: 0.206
CTGTAAAA	inactive: 0.121
GCTACTCC	inactive: -0.0924
GAAGCTAA	inactive: -0.097
AGCTCGAT	inactive: 0.00644
GATCTGGA	inactive: -0.0547
CGCGCGTA	inactive: -0.121
GTCTACCA	inactive: -0.00787
TGTCTCAA	inactive: 0.147
AACAAATC	inactive: 0.219
AGGTTATG	inactive: 0.044
GCTATCAA	inactive: -0.02
TCTGGCAA	inactive: -0.0834
AAAAAATA	inactive: 0.103
TATACCAA	inactive: 0.078
AGTTCTCA	inactive: 0.0922
GTATTGAA	inactive: 0.169
CGGCGAAG	inactive: -0.224
CCGGAATC	inactive: -0.157
CGGGGCAC	inactive: -0.176
TGAATGCA	inactive: 0.082
CGTTCCCC	inactive: -0.199

Sequence	PBM E-score
CTACGGCC	inactive: -0.265
ACGTATGA	inactive: 0.128
GGTAACGA	inactive: 0.0983
GGAATCCA	inactive: -0.123
ACGATTTA	≥ 0.118
AATCCTAA	inactive: -0.0293
ACTCAACT	inactive: 0.0816
TCCACAAA	inactive: -0.0857
AATATCAT	inactive: 0.165
AACGTCTG	inactive: 0.00133
GAAAGCTA	inactive: -0.0387
AGGGGTAG	inactive: -0.168
AGACAGTA	inactive: 0.142
GATTTTCA	inactive: 0.0992
AAGCAGAA	inactive: 0.0117
CCTAGTGC	inactive: -0.0537
AATTGGGC	inactive: -0.0131
CCGCAGGC	inactive: -0.175
CATTCGAC	inactive: 0.0787
ACCCTACA	inactive: 0.135
ACGAGACT	inactive: -0.00093
AAGGAGAT	inactive: 0.0194
CTAGCAAA	inactive: 0.0422
AAGCCACT	inactive: -0.0777
ACCCCTCC	inactive: -0.121

Sequence	PBM E-score
ATTAGGGG	inactive: -0.0877
GCCGGGGA	inactive: -0.241
GGAGCCAA	inactive: -0.247
AACGCGGA	inactive: -0.101
GCTACTAA	inactive: 0.0694
ATAGCATA	inactive: 0.139
CGCCCCCA	inactive: -0.285
ACCCGAAC	inactive: -0.0964
GAAGAAGC	inactive: -0.158
TGCGACAA	inactive: 0.148
ATGGTACA	active: 0.32
AGGGGTTG	inactive: -0.00316
TCCTCCCA	inactive: -0.116
CAGTGAGC	inactive: -0.108
CCGCCAGG	inactive: -0.211
ACTGTAGC	inactive: -0.0122
AAAAAAAA	inactive: 0.0105
CTCTAGCA	inactive: -0.017
CGGCCGTA	inactive: -0.11
AATCTTGG	inactive: 0.0351
AGGAAGGG	inactive: -0.201
AGGTACAC	inactive: 0.297
TAGACCCA	inactive: -0.0906
GATTATCC	inactive: 0.0409
CCACGGGA	inactive: -0.103

Sequence	PBM E-score
CACCCACA	inactive: -0.0592
CAGCGGGG	inactive: -0.286
AAAGACGT	inactive: -0.0542
CATGGTAG	inactive: 0.121
GATACAAA	inactive: 0.213
CATTGTAC	active: 0.323
CGTATCAC	inactive: 0.101
AAAACGGA	inactive: 0.00451
ATCCTAAG	inactive: -0.143
ACAGCAAC	inactive: 0.118
GTTTCCTA	inactive: 0.151
GATAGGAA	inactive: 0.0422
TGTGACAA	inactive: 0.298
GGATTACC	inactive: -0.025
ACTTCAGC	inactive: -0.128
AGGATCAG	inactive: -0.0645
GAGATACA	inactive: 0.231
CTGCAATA	inactive: 0.0648
TTCCAGAA	inactive: 0.052
CTTACCCA	inactive: -0.0604
AAGAAATT	inactive: 0.0273
GACCTACA	inactive: 0.0736
